Source: patent US6987127B2, “Regulation of NAD(P)H oxidase growth and transcription in melanoma cells” (Charlotte-Mecklenburg Hospital Authority, priority 2001, dated 2006)

What was measured:
[1] = test system: membrane NAD(P)H oxidase of M1619 melanoma cells; experiment: SOD-inhibitable lucigenin chemiluminescence (O2- generation) by 100,000 g plasma membrane fraction; format: biochemical, human; details: 300 units/ml, 15 μg membrane protein, 100 μmol/L NADPH, 5 minutes
M1619 melanoma cells = details: pretreatment 15 minutes, 250 μmol/L

Molecule	Lucigenin chemiluminescence of membranes + NADPH [1]	Median fluorescence (DCFH oxidation to DCF) (M1619 melanoma cells; untreated 685)	Mean fluorescence (DCFH oxidation to DCF) (M1619 melanoma cells; untreated 754)
superoxide dismutase [SOD]	significantly inhibited	–	–
O=c1oc2ccccc2c(O)c1Cc1c(O)c2ccccc2oc1=O [dicumarol]	–	359	396
